Tested on: IAV Udorn (H3N2) and NYMC (H3N2) strains
Type: cell-based, influenza A virus

With `O=C(Nc1cc(F)cc(F)c1)Nc1cc(F)cc(F)c1` [DPUD-16, 1,3-bis(3,5-difluorophenyl)urea] the “effect on infection with IAV Udorn (H3N2) and NYMC (H3N2)” value was “Reduced infection”.
In the case of `O=C(Nc1ccc(OC(F)(F)F)cc1)Nc1ccc(OC(F)(F)F)cc1` [DPUD-20, 1,3-bis(4-(trifluoromethoxy)phenyl)urea], the “effect on infection with IAV Udorn (H3N2) and NYMC (H3N2)” value is reported as “Reduced infection”.
